From the supplement of paper PMC3334620
Whole data set: some 33,000 sequences, median “E-score (-0.5 to 0.5)” near -0.032, cut for the highest 2% near 0.36. This is one part of the list.

biological target: T1, Sko1 (UniProt Q02100); assay: PBM E-score (8-mer binding enrichment) (E-score (-0.5 to 0.5)); higher = stronger / more preferred TF binding; most listed sequences are background and not binding sites; conditions: protein concentration: 200 nM; construct: GST-full length
T1 sequence: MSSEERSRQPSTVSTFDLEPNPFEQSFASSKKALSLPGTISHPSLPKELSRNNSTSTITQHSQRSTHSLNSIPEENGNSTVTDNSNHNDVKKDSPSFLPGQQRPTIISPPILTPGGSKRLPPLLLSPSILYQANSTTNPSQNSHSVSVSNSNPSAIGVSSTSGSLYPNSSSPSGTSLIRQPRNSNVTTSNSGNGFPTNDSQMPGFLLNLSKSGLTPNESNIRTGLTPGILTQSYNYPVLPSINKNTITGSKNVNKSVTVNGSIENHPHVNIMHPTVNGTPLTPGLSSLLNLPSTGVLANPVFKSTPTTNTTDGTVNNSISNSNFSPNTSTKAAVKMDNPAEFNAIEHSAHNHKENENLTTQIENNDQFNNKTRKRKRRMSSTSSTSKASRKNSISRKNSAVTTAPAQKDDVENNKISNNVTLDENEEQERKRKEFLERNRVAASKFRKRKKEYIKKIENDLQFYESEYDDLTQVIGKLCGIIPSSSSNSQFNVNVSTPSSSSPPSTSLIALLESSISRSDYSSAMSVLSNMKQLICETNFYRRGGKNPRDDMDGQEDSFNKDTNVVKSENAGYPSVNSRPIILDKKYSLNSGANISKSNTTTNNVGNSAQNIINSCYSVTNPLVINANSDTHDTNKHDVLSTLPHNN
Outline: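 For each ungapped eight-base word taken together with its reverse complement, the Universal PBM Analysis Suite assigned an E-score. Binding data came from GST-tagged yeast transcription factors, applied at about 100-200 nM, on universal all-10-mer Agilent arrays made double-stranded by primer extension. Fluorescent anti-GST marked bound protein, and scans were normalised with masliner.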

| Sequence | PBM E-score |
| --- | --- |
| CCCGGAAC | -0.267 |
| AACTGTAA | 0.203 |
| GAGGCCGC | -0.229 |
| CTACCATC | -0.303 |
| AGAGCTTA | -0.0935 |
| ATCTCATA | 0.0762 |
| CGGACCCG | -0.216 |
| ACCTCATC | 0.183 |
| CGGGCTTA | -0.0967 |
| GATTACAC | 0.0868 |
| GCAAGGGA | -0.177 |
| ATATTATC | 0.206 |
| ACCTTCAC | -0.0666 |
| AGCGGGTG | -0.163 |
| CATAGCCA | -0.0432 |
| AGTCGCTA | -0.0838 |
| CTAGGCCC | -0.305 |
| CAAGTCCC | -0.233 |
| GTGGGACA | 0.00558 |
| ATCCTATA | 0.0809 |
| ATGTCCAC | 0.116 |
| GACCGTAC | -0.0393 |
| CACTGAAA | 0.165 |
| CGATAATC | -0.025 |
| ACGTCACC | 0.489 |

| Sequence | PBM E-score |
| --- | --- |
| ACACCAGG | -0.235 |
| AAATCAAC | 0.0214 |
| CTCGCTCC | -0.0506 |
| AATACGCA | 0.407 |
| ACGCGGGC | 0.0933 |
| AGGTATTC | 0.0465 |
| GTCGCCTA | -0.174 |
| AGCGAGCA | -0.163 |
| CCACGGAC | -0.349 |
| CGAGCCAA | -0.0335 |
| ACTTGTTG | -0.0653 |
| CTTACCCC | -0.226 |
| CTCAGAAA | 0.0103 |
| AAGAGACG | 0.0839 |
| AGTACGCA | 0.25 |
| CGGCTCTA | -0.173 |
| ACCAATAT | 0.079 |
| AAGGAGTG | -0.199 |
| ATGTACCG | 0.0579 |
| CAGACTAA | -0.116 |
| AACAGCAA | -0.029 |
| ACCTCGCA | -0.113 |
| CGCCAAGC | -0.27 |
| ACACACGC | 0.145 |
| AACCGTGA | 0.23 |

| Sequence | PBM E-score |
| --- | --- |
| GAGACCTC | -0.128 |
| CACGGTGA | 0.0231 |
| CTCGGCGC | -0.127 |
| ACGCAATG | 0.399 |
| CGGCCATA | -0.204 |
| CGCCATAG | 0.108 |
| ATAGCACC | -0.0103 |
| CAGCATAG | 0.0616 |
| CAGAGTCG | -0.107 |
| AGGTCTTA | -0.0637 |
| ATGTAAAG | 0.156 |
| CGTCGGCC | 0.0115 |
| ATGACAAG | 0.0818 |
| GACTTGGC | -0.349 |
| GAGCCTTA | -0.205 |
| GTACGTAC | 0.44 |
| GCAAAACA | 0.0407 |
| GTCATTCA | 0.247 |
| AATACTAT | -0.00985 |
| CCCTCGAC | -0.192 |
| CGCGGGGA | -0.16 |
| ACCCGTAA | -0.00679 |
| AAGATATA | 0.174 |
| ATCTATCA | 0.185 |
| CTGCAACA | -0.00268 |

| Sequence | PBM E-score |
| --- | --- |
| CCTGTGTA | -0.0155 |
| CAGGAGAG | -0.264 |
| AGGGTGTC | -0.0619 |
| CCAAGAGG | -0.256 |
| AGAGCAAA | -0.062 |
| AGAGATAC | -0.00148 |
| ATAGAATA | 0.125 |
| AAGGAGGC | -0.161 |
| CAAGACCA | -0.184 |
| CCCCCTCG | -0.371 |
| GTCTGCTA | 0.0287 |
| ATTATGGG | -0.143 |
| CATGACGC | 0.465 |
| ACTTCTGC | -0.0277 |
| AACATTCG | -0.0594 |
| AATTACCG | 0.163 |
| GTTCAGAA | -0.0502 |
| TACCTGAA | 0.143 |
| ACAGACCC | -0.0315 |
| AGTGGATG | -0.131 |
| AACAAGAA | 0.152 |
| AAAGCCCG | -0.215 |
| CTGCGCGC | 0.00015 |
| GTATTACA | 0.328 |
| AACTATCA | 0.151 |

| Sequence | PBM E-score |
| --- | --- |
| CGGTGCCA | -0.21 |
| ACGGCCTA | -0.142 |
| AAAGGTGG | -0.0647 |
| TCCGCGCA | 0.12 |
| AGATGGCA | 0.0618 |
| ACCTGAGC | 0.0188 |
| ACGATTAA | 0.109 |
| ACTCAGAT | 0.113 |
| TCTATTCA | 0.142 |
| AGCGGTCA | -0.302 |
| GGCTGACA | -0.00803 |
| CATTCGGC | -0.262 |
| CGTACATA | 0.378 |
| ACGAGAGG | -0.0602 |
| AATACAGA | 0.095 |
| TACTTCTA | 0.177 |
| GCGAATCC | -0.0807 |
| ACCCGACT | -0.157 |
| AAGCCGAG | -0.275 |
| GACGCGAC | 0.0903 |
| GTTTTGTA | 0.262 |
| CTCCCTTC | -0.249 |
| CTCTTGAC | 0.00901 |
| AACGGGTC | -0.383 |
| AGCAAGAT | -0.0644 |

| Sequence | PBM E-score |
| --- | --- |
| AAGAGGCC | -0.215 |
| AGCGCCCT | -0.113 |
| GTTCGTGA | -0.0757 |
| AGTACGTA | 0.474 |
| CAAAGTGG | -0.33 |
| GTGACCGA | -0.112 |
| GACCGACC | -0.126 |
| GGTAGACC | -0.224 |
| ACGAAGCG | 0.00775 |
| CTTGCGCC | -0.172 |
| CAGGTCCA | -0.232 |
| ATCGACGA | 0.0268 |
| CCGACTAC | -0.068 |
| CACCACTG | -0.175 |
| CTAGTGAA | -0.0191 |
| ATCCCCAC | -0.0231 |
| CCAGGGAC | -0.144 |
| ATGTCTTC | -0.0255 |
| ACCCAAAC | 0.124 |
| AGCTGCGA | -0.23 |
| GCCATTCA | -0.173 |
| GCTGATGA | 0.187 |
| ATTCTTTG | 0.0805 |
| ATTAAGGA | -0.0102 |
| CACGAGTC | -0.144 |

| Sequence | PBM E-score |
| --- | --- |
| CTCTAATC | -0.0586 |
| GACCGGAC | -0.338 |
| CAGCGGAG | -0.21 |
| ACCTTCGC | -0.111 |
| CAACAGCA | -0.129 |
| ATATTGAA | 0.298 |
| AATCATAG | 0.126 |
| CAAACGAG | -0.0831 |
| CAGAACAC | -0.0744 |
| TAACTCTA | -0.0475 |
| GCGCTAGA | -0.0443 |
| TCGCTAGA | -0.0802 |
| TGGCTTAA | 0.0689 |
| AAGGTTCA | -0.1 |
| AGCACAGC | -0.134 |
| AAGAGTAT | -0.155 |
| TTGGCCAA | -0.202 |
| AGGCCGAC | -0.257 |
| CAAATCCC | -0.184 |
| CACAAGAC | -0.0429 |
| AACAGGCT | -0.168 |
| CATATCCA | -0.129 |
